Legend:
[1] = biological target: T1, hPILRB (Homo sapiens, UniProt Q9UKJ0); test: SPR (Biacore 8K) binding affinity to hPILRB; conditions: Table 6
T1 construct: injections of serial 3-fold dilutions of recombinant ECD reagents
Method: (§1) The binding affinities of anti-PILRA antibodies to hPILRA, hPILRB, and cynoPILRA extracellular domain (ECD) were measured by SPR using a Biacore 8K instrument (Table 2). Antibodies were captured on Biacore™ Series S CM5 sensor chips immobilized with mouse anti-human Fab (human Fab capture kit from GE Healthcare) followed by injections of serial 3-fold dilutions of recombinant ECD reagents at a flow rate of 30 μL/min. Each sample was analyzed using a 3-minute association followed by a 10-minute dissociation. After each injection, the sensor chip was regenerated using a 5 0 mM glycine pH2.0 regeneration buffer. A 1:1 Languir model of simultaneous fitting of kon and koff was used for kinetics analysis.
(§2) The binding affinities of four reference anti-PILRA antibodies to hPILRA, hPILRB, and cynoPILRA were measured by SPR using a Biacore 8K instrument (described in Example 2). The EC50 binding values of the four reference antibodies were also measured in HEK293 cells expressing hPILRA G78.
(§3) Further, humanized antibody clones 36-39 were generated. The binding affinities of these clones for hPILRA G78, hPILRA R78, hPILRB, and cyno PILRA were measured by SPR (Table 8).

[2] = biological target: cynoPILRA; test: SPR (Biacore 8K) binding affinity to cynoPILRA; set-up: species or system cynomolgus monkey; conditions: Table 6
Method: as §1, §2, §3

T1 sequence (Q9UKJ0 with tags, fused parts or gaps): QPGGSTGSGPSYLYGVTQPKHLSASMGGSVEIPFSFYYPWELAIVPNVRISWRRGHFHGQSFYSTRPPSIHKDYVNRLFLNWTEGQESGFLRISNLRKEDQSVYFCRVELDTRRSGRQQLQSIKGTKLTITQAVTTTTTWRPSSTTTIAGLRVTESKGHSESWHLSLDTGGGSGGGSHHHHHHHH

| hPILRB KD [1] | cynoPILRA KD [2] | Molecule |
| --- | --- | --- |
| Very weak | Very weak | Reference Antibody #3: reference anti-PILRA antibody; heavy and light chain sequences among SEQ ID NOS:128-135 (antibody) heavy: QVTLKESGPGMLQPSQTLSLACSFSGFSLNSFGVAVGWIRQPSGKGLEWLAHIWWDDDKSYNPALKSRLTISKDTSKNQVFLKLANVDTADTATYYCTRIADYGNHFDYWGQGTALTVSSASTKGPSVFPLAPSSKSTSGGTAALGCLVKDYFPEPVTVSWNSGALTSGVHTFPAVLQSSGLYSLSSVVTVPSSSLGTQTYICNVNHKPSNTKVDKKV[left out - human IgG1 Fc with changes] light: DIQMNQSPSSLSASLGDTITITCHASQNSHVWLSWYQQKPGNIPKLLIYKASNLHTGVPSRFSGSGSGTGFTLTISGLQPEDIATYYCQQGQTYPFTFGSGTKLEIKRTVAAPSVFIFPPSDEQLKSGTASVVCLLNNFYPREAKVQWKVDNALQSGNSQESVTEQDSKDSTYSLSSTLTLSKADYEKHKVYACEVTHQGLSSPVTKSFNRGEC |
| No binding | No binding | Reference Antibody #2: reference anti-PILRA antibody; heavy and light chain sequences among SEQ ID NOS:128-135 (antibody) heavy: QVILKESGPGILQSSQTLSLTCSFSGFSLSTFGMGVGWIRQPSGKGLESLAHIWWDDDKFYNPALKSRLTISKDTSKSQVFLKIANVDTADIATYYCTRIEDYGSYFAYWGQGTTLTVSSASTKGPSVFPLAPSSKSTSGGTAALGCLVKDYFPEPVTVSWNSGALTSGVHTFPAVLQSSGLYSLSSVVTVPSSSLGTQTYICNVNHKPSNTKVDKKV[left out - human IgG1 Fc with changes] light: DVQMNQSPSSLSASLGDPITITCHASQNIHVWLNWYQQRPGNIPRLLIYKASNLHTGVPSRFSGSGSGTGFTLTISSLQPEDIATYYCQQGQSYPYTFGGGTKLEIKRTVAAPSVFIFPPSDEQLKSGTASVVCLLNNFYPREAKVQWKVDNALQSGNSQESVTEQDSKDSTYSLSSTLTLSKADYEKHKVYACEVTHQGLSSPVTKSFNRGEC |

— patent publication US20260109763A1, “ANTI-PILRA ANTIBODIES, USES THEREOF, AND RELATED METHODS AND REAGENTS” (DENALI THERAPEUTICS INC., priority 2021, published 2026)
